Some of the results follow.

The text below walks through data of the supplement of paper PMC11417369.

This assay has as its system PfSIP2 AP2 domain 1 (GST-tagged). Kind of assay: gcPBM binding intensity (ln(normalized median fluorescence intensity)); higher = stronger DNA binding. The procedure, abridged: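 Each value is the highest Masliner-normalised natural-log median intensity across replicate spots of either orientation of a probe. The probes were primer-extended double-stranded 36-bp intergenic genomic sequences on an Agilent 4 × 180k array, alongside negative controls, exposed for 1 h to GST-tagged P. falciparum DNA-binding domains expressed in E. coli. Bound protein was picked up with Alexa488 anti-GST antibody and scanned at 488 nm.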
As for “AAGAAAAAAAAAAAAAAAAAAAAAAAAAAAAAAAAA [TGCATGCA_negctrl_site263]”, the “gcPBM binding intensity (ln)” value was determined as 7.12. Take “TTCTGTATATAGTGTGCACACAATTAAAAAAAAAAA [CACACA_site8400]”: the “gcPBM binding intensity (ln)” value was determined as 9.67. Turning to “TAATGTACTTAAACCGCACACATATAAAAAAATAAA [CACACA_site8926]”, the “gcPBM binding intensity (ln)” value was 7.64. Next, “TTATTTTAATTTTTGGTGCATATTCAAGTGTACCTT [GTGCAC_site9791]”: 9.68; “TATTTACATATTTATATACACACTTTTGCGTGTCTG [CACACA_site1110]”: 6.9; “AAATAAAATACAATATGATAAAATGTTATCATATAT [CACACA_negctrl_site538]”: 6.82. Next, “ATAAATAATATAAATACACACTAAAAAAGATATATA [CACACA_site6397]”: 7.01; “AATAAAAGGAATAATTGTACATAATGATTATACGTT [XGTACX_site7548]”: 6.95; “GTTGTAAAAAGAAAATGTACGTAATAAATATATATA [XGTACX_site3081]”: 7.45.

“AATACTCCATTGTATAGTACATATATTTTTATTTAT [XGTACX_site3641]”: the “gcPBM binding intensity (ln)” value is 6.87. Next, “AATAAAAAAAAAAATAATATATATGTATAAATATAT [CACACA_negctrl_site1561]”: 6.83; “TATTTTTATTTATATACACACTTACATATTTATATT [CACACA_site7666]”: 7.14; “AGAATTTATAAAAACTGTACATATTTTCCAGTTATA [XGTACX_site2848]”: 6.79. Consider “ATATAATATAACAATACGCACACGTATACAAAAAAA [CACACA_site3151]”, for which the “gcPBM binding intensity (ln)” value was found to be 7.18. Regarding “ATGTAATCATTTTCGACTTTTTTTTTTTTTTTTTTT [CACACA_negctrl_site1132]”, the “gcPBM binding intensity (ln)” value stood at 7.87. Consider “AGGAAATGTTTATATACATGCATAATTAAATATAAT [TGCATGCA_site672]”, for which the “gcPBM binding intensity (ln)” value turned out to be 6.89.

Consider “ATAAAATGCGCAAACACACACAAAAAAAAGATATAT [CACACA_site6875]”, for which the “gcPBM binding intensity (ln)” value was found to be 7.08. For “TTTTTAATTAATCTTATAAATATTTATAAATATATA [CACACA_negctrl_site1485]”, the “gcPBM binding intensity (ln)” value was determined as 6.79. For the sequence “TTTTTTTTTTTTTTTTTTTTCTTCATTTAATTTATA [GTGCAC_negctrl_site17]”, the “gcPBM binding intensity (ln)” value was 7.05. For the sequence “ATTATATTTCAATTATGTACATATAAAATGAATAAA [XGTACX_site4204]”, the “gcPBM binding intensity (ln)” value was 7.19.

In the case of “AATTTTCATTTTAGAAGTACACACAAAAAATAAAAT [XGTACX_site4426]”, the “gcPBM binding intensity (ln)” value stood at 7.07. Next, “TTTTCATGTTTTTTTCTTTATTTTTTTTTTTTTTTT [GTGCAC_negctrl_site511]”: 7.31.

For “TTTTTTTATTATTATTGTACAAGGCCTTAGGTGATT [XGTACX_site5050]”, the “gcPBM binding intensity (ln)” value came out at 7.26. With “TACTTAATTATAAGGACATGCACAAAAGGAATTATT [TGCATGCA_site468]” the figure was 9.06; with “TATTAAACAAATTATGCAAAAATAAATCAATATGTT [CACACA_negctrl_site171]”, 6.89. With “CAATTTATAAAGAAAACACACATATACATATATACA [CACACA_site1260]” the figure was 6.9.

Turning to “ATTATTTTATAATTCACACATAAATAAAAAAAAAAT [CACACA_site5290]”, the “gcPBM binding intensity (ln)” value is 6.86. On to “TTAGGAAGCTCACAAAATAAAGTGAAAAGAAGAAAA [XGTACX_negctrl_site572]”, for which the “gcPBM binding intensity (ln)” value was 6.64. Next, “AAAAGTTTTATTTAAATGAATTAATCTTTACTATAT [CACACA_negctrl_site282]”: 6.69; “TGATTTCCAGGTTATTGTACAAAATTAATTTTCGAA [XGTACX_site2491]”: 7.25. As to “ATATATATAAAACACACACACAAAAAAAATAAAGAC [CACACA_site117]”, the “gcPBM binding intensity (ln)” value worked out at 8.02. Next, “TAAATATTATTTCATAGTACTTTTATTATTGATATA [XGTACX_site5566]”: 6.93; “TTTTGTAGTTTATAAATAAAAGAGAATATGGTGCTT [CACACA_negctrl_site413]”: 7.7. With “TAAATAAATATATATACACACATATATATATATATA [CACACA_site598]” the figure was 9.65; with “TGTATGTATTAATGCGCACACAAAAAATAACAATAT [CACACA_site1848]”, 9.32; with “AAAAAAAAAAAAAAGAGTACACAGACGTTCAAAGGT [XGTACX_site7566]”, 7.5. As to “ACAGAGCTTTAAATACGTACATAATATATATTAAAT [XGTACX_site8221]”, the “gcPBM binding intensity (ln)” value came out at 7.25. With “ATATAGATATATAGTAGTACTTGTTATATAAGATAA [XGTACX_site6336]” the figure was 7.2; with “TATTGATTTAGAAACACACACTCGAAGATGTTTAAC [CACACA_site1129]”, 6.84; with “TTTAAAAAATGTTATATTATATAATTAAAAAAAAAA [CACACA_negctrl_site1509]”, 6.63. Regarding “ATATATATATATAAATGTACATTGTGTGTTGTAAGA [XGTACX_site2434]”, the “gcPBM binding intensity (ln)” value amounted to 9.11. Turning to “ATAAAAAAAAAATAATGTACTTATATATATATATAT [XGTACX_site8282]”, the “gcPBM binding intensity (ln)” value is 9.32. Next, GTATATTATTTACGTTTGCACTTCATTTTATAGTAA: 8.08; “TATTAATTGTGGCACCTTGTATGTTTACAATGACAT [CACACA_negctrl_site1383]”: 8.32.

For the sequence “TTCTTCAAAAAAAATTGTACACATCTCTCAAATGTT [XGTACX_site2952]”, the “gcPBM binding intensity (ln)” value came to 6.99. “AATGGATGAATGAATGTATGAATGAATGTATGAATG [CACACA_negctrl_site91]”: the “gcPBM binding intensity (ln)” value stood at 7.17. Next, “ATGTATGTGTAACATAGTACTTTTTAAAAGGATATT [XGTACX_site5328]”: 6.92; “TATAGATACATATACACACACACACCCACATATATA [CACACA_site3436]”: 7.18. With “AATATCATATAAAAATGTACAAATTCTAAAACACGA [XGTACX_site1442]” the figure was 7.29; with “TATTTTTTATAATAATGTACATATATATATATAATA [XGTACX_site2329]”, 7.35; with “GTATTCATGCTAAAGGTGCAATAATTTTTATAATAA [GTGCAC_site9603]”, 10.9. Regarding “AAGATAAAATTATGTAGTACAAAAAAAAATAAAAAA [XGTACX_site139]”, the “gcPBM binding intensity (ln)” value came to 6.86.

“ATCAAACCTTTTAAATGTACATTCGGAGTAAAAAAA [XGTACX_site282]”: the “gcPBM binding intensity (ln)” value stood at 7.21. Consider “TTAAAAATGTTGGAAAGTACATATTTTTTAAAAGTA [XGTACX_site802]”, for which the “gcPBM binding intensity (ln)” value was found to be 7.03. For “CGCCTATAAGCTTAGACACACAAATAAATAAATATA [CACACA_site1264]”, the “gcPBM binding intensity (ln)” value is 6.97. With “TACCTAATTCGGTCCCGTACAAGTTAGTTTCAATTC [XGTACX_site2703]”, the “gcPBM binding intensity (ln)” value was determined as 6.55.
